# Results taken from the supplement of paper PMC4967469.
# Experiments:
# Assay in all cases: Viability of human cancer cell lines after 72 h of drug (GDSC screen)
# [1] = compound: CCN1CCN(Cc2ccc(NC(=O)c3ccc(C)c(Oc4ccnc5[nH]ccc45)c3)cc2C(F)(F)F)CC1 [NG-25]; conditions: top dose 10.24 µM; top dose inferred
# Description: (§1)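 Human cancer cell lines in 384-well plates, medium with 10% serum, drug for 72 h over a 256-fold dose range (nine 2-fold or five 4-fold steps up to the top dose). Adherent lines were fixed and stained with the nucleic acid dye Syto60, suspension lines read with resazurin; signal relative to control wells, capped at 0 and 100%. One two-parameter sigmoid per drug and line, fitted in a mixed model over all curves with the slope shared within a line.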
# [2] = compound: Cn1cncc1[C@@](N)(c1ccc(Cl)cc1)c1ccc2c(c1)c(-c1cccc(Cl)c1)cc(=O)n2C [Tipifarnib]; conditions: top dose 16 µM; top dose inferred
# Description: as §1
# [3] = compound: COc1ccccc1S(=O)(=O)Nc1ccc2c(c1)CN(C)C(=O)N2 [PFI-1]; conditions: top dose 10 µM; top dose inferred
# Description: as §1
# [4] = compound: CCc1cc(Nc2nccc(-c3c(-c4ccc(OC)c(C(=O)Nc5c(F)cccc5F)c4)nc4ccccn34)n2)c(OC)cc1N1CCC(N2CCN(S(C)(=O)=O)CC2)CC1 [GSK-1904529A]; conditions: top dose 1.024 µM; top dose inferred
# Description: as §1
Cell Line,AUC [1],IC50 [1],AUC [2],IC50 [2],AUC [3],IC50 [3],AUC [4],IC50 [4]
"22RV1 (prostate, adherent)",0.885,> 10.2 µM,0.656,3.01 µM,0.842,9.72 µM,0.98,> 1.02 µM
"42-MG-BA (glioma, adherent)",0.866,10.2 µM,0.87,> 16 µM,0.846,8.07 µM,0.96,> 1.02 µM
"451Lu (melanoma, adherent)",0.986,> 10.2 µM,0.576,1.6 µM,0.836,6.25 µM,0.981,> 1.02 µM
"639-V (bladder, adherent)",0.97,> 10.2 µM,0.493,0.958 µM,0.906,> 10 µM,0.98,> 1.02 µM
"647-V (bladder, adherent)",0.91,> 10.2 µM,0.562,1.48 µM,0.85,7.67 µM,0.981,> 1.02 µM
"769-P (kidney, adherent)",0.85,8.9 µM,0.653,2.77 µM,0.906,> 10 µM,0.974,> 1.02 µM
"786-0 (kidney, adherent)",0.863,7.68 µM,0.191,0.133 µM,0.865,7.68 µM,0.952,> 1.02 µM
"5637 (bladder, adherent)",0.847,6.51 µM,0.502,1.02 µM,0.896,> 10 µM,0.989,> 1.02 µM
"8305C (thyroid, adherent)",0.958,> 10.2 µM,0.545,1.38 µM,0.855,> 10 µM,0.928,> 1.02 µM
"8505C (thyroid, adherent)",0.835,7.32 µM,0.4,0.524 µM,0.86,9.25 µM,0.957,> 1.02 µM
"23132-87 (stomach, adherent)",0.825,6.43 µM,0.764,6.02 µM,0.925,> 10 µM,0.971,> 1.02 µM
"A172 (glioma, adherent)",0.911,> 10.2 µM,0.676,3.04 µM,0.925,> 10 µM,0.984,> 1.02 µM
"A204 (rhabdomyosarcoma, adherent)",0.611,1.42 µM,0.653,3.03 µM,0.739,3.75 µM,0.94,> 1.02 µM
"A427 (non-small cell lung carcinoma, adherent)",0.873,9.99 µM,0.384,0.478 µM,0.953,> 10 µM,0.986,> 1.02 µM
"A431 (skin, adherent)",0.862,8.15 µM,0.416,0.593 µM,0.924,> 10 µM,0.987,> 1.02 µM
"A673 (rhabdomyosarcoma, adherent)",0.968,> 10.2 µM,0.827,8.47 µM,0.916,> 10 µM,0.989,> 1.02 µM
"A2058 (melanoma, adherent)",0.907,> 10.2 µM,0.787,6.18 µM,0.75,2.95 µM,0.99,> 1.02 µM
"A2780 (ovary, semi-adherent)",0.823,6.35 µM,0.622,2.2 µM,0.922,> 10 µM,0.978,> 1.02 µM
"ABC-1 (lung adenocarcinoma, adherent)",0.945,> 10.2 µM,0.579,1.72 µM,0.895,> 10 µM,0.969,> 1.02 µM
"ACHN (kidney, adherent)",0.867,> 10.2 µM,0.502,1.01 µM,0.899,> 10 µM,0.952,> 1.02 µM
"AGS (stomach, adherent)",0.923,> 10.2 µM,0.628,2.16 µM,0.854,6.63 µM,0.99,> 1.02 µM
"AN3-CA (endometrium, adherent)",0.739,3.32 µM,0.386,0.47 µM,0.966,> 10 µM,0.962,> 1.02 µM

Cell Line,AUC [1],IC50 [1],AUC [2],IC50 [2],AUC [3],IC50 [3],AUC [4],IC50 [4]
"ASH-3 (thyroid, adherent)",0.988,> 10.2 µM,0.597,1.85 µM,0.891,> 10 µM,0.986,> 1.02 µM
"AU565 (breast, adherent)",0.904,> 10.2 µM,0.574,1.63 µM,0.916,> 10 µM,0.907,> 1.02 µM
"AsPC-1 (pancreas, adherent)",0.901,> 10.2 µM,0.906,> 16 µM,0.873,> 10 µM,0.964,> 1.02 µM
"BCPAP (thyroid, adherent)",0.789,4.07 µM,0.541,1.28 µM,0.889,9.54 µM,0.985,> 1.02 µM
"BEN (non-small cell lung carcinoma, adherent)",0.921,> 10.2 µM,0.75,5.9 µM,0.841,8.46 µM,0.971,> 1.02 µM
"BFTC-905 (bladder, adherent)",0.865,7.03 µM,0.615,1.97 µM,0.661,1.63 µM,0.978,> 1.02 µM
"BFTC-909 (kidney, adherent)",0.977,> 10.2 µM,0.731,4.45 µM,0.901,> 10 µM,0.988,> 1.02 µM
"BHT-101 (thyroid, adherent)",0.823,6.3 µM,0.664,2.9 µM,0.717,2.63 µM,0.965,> 1.02 µM
"BHY (head and neck, adherent)",0.8,4.98 µM,0.5,0.999 µM,0.841,6.97 µM,0.985,> 1.02 µM
"BICR10 (head and neck, adherent)",0.981,> 10.2 µM,0.705,4.18 µM,0.877,> 10 µM,0.969,> 1.02 µM
"BICR22 (head and neck, adherent)",0.953,> 10.2 µM,0.813,10.3 µM,0.879,> 10 µM,0.972,> 1.02 µM
"BICR78 (head and neck, adherent)",0.964,> 10.2 µM,0.763,6.63 µM,0.727,3.1 µM,0.754,0.395 µM
"BPH-1 (prostate, adherent)",0.867,> 10.2 µM,0.605,2 µM,0.684,2.17 µM,0.98,> 1.02 µM
"BT-20 (breast, adherent)",0.891,> 10.2 µM,0.763,7.09 µM,0.942,> 10 µM,0.962,> 1.02 µM
"BT-483 (breast, adherent)",0.961,> 10.2 µM,0.969,> 16 µM,0.908,> 10 µM,0.976,> 1.02 µM
"C3A (liver, adherent)",0.922,> 10.2 µM,0.682,3.29 µM,0.91,> 10 µM,0.98,> 1.02 µM
"C32 (melanoma, adherent)",0.917,> 10.2 µM,0.974,> 16 µM,0.918,> 10 µM,0.986,> 1.02 µM
"C-4-I (cervix, adherent)",0.971,> 10.2 µM,0.81,9.3 µM,–,–,0.971,> 1.02 µM
"C-33-A (cervix, adherent)",0.695,2.25 µM,0.649,2.6 µM,0.862,8.6 µM,0.918,> 1.02 µM
"CAKI-1 (kidney, adherent)",0.831,> 10.2 µM,0.853,> 16 µM,0.778,6.35 µM,0.925,> 1.02 µM
"CAL-12T (non-small cell lung carcinoma, adherent)",0.848,9.06 µM,0.454,0.737 µM,0.897,> 10 µM,0.925,> 1.02 µM
"CAL-27 (head and neck, adherent)",0.958,> 10.2 µM,0.564,1.5 µM,0.77,3.87 µM,0.98,> 1.02 µM

Cell Line,AUC [1],IC50 [1],AUC [2],IC50 [2],AUC [3],IC50 [3],AUC [4],IC50 [4]
"CAL-29 (bladder, adherent)",0.885,> 10.2 µM,0.725,4.62 µM,0.782,4.52 µM,0.983,> 1.02 µM
"CAL-33 (head and neck, adherent)",0.948,> 10.2 µM,0.696,3.56 µM,0.878,> 10 µM,0.986,> 1.02 µM
"CAL-39 (cervix, adherent)",0.943,> 10.2 µM,0.461,0.779 µM,0.875,> 10 µM,0.946,> 1.02 µM
"CAL-51 (breast, adherent)",0.941,> 10.2 µM,0.625,2.1 µM,0.95,> 10 µM,0.99,> 1.02 µM
"CAL-54 (kidney, adherent)",0.824,7.26 µM,0.791,8.32 µM,0.788,5.08 µM,0.913,> 1.02 µM
"CAL-62 (thyroid, adherent)",0.876,9.3 µM,0.573,1.57 µM,0.686,2.02 µM,0.979,> 1.02 µM
"CAL-72 (osteosarcoma, adherent)",0.984,> 10.2 µM,0.732,5.25 µM,0.86,> 10 µM,0.978,> 1.02 µM
"CAL-78 (chondrosarcoma, adherent)",0.944,> 10.2 µM,0.779,7.53 µM,0.907,> 10 µM,0.957,> 1.02 µM
"Caov-3 (ovary, adherent)",0.903,> 10.2 µM,0.955,> 16 µM,–,–,0.991,> 1.02 µM
"MIA-PaCa-2 (pancreas, adherent)",0.974,> 10.2 µM,0.333,0.325 µM,–,–,0.981,> 1.02 µM
"NCI-H647 (non-small cell lung carcinoma, adherent)",0.795,5 µM,0.905,> 16 µM,–,–,0.985,> 1.02 µM
"NCI-H1734 (lung adenocarcinoma, adherent)",0.899,> 10.2 µM,0.776,7.02 µM,–,–,0.985,> 1.02 µM
"NCI-H2052 (mesothelioma, adherent)",0.936,> 10.2 µM,0.851,> 16 µM,–,–,0.983,> 1.02 µM
"NCI-H3122 (lung adenocarcinoma, adherent)",0.86,9.01 µM,0.201,0.126 µM,–,–,0.951,> 1.02 µM
"OCUM-1 (stomach, adherent)",0.979,> 10.2 µM,0.686,3.53 µM,–,–,0.879,> 1.02 µM
"PA-1 (ovary, adherent)",0.847,5.21 µM,0.525,1.15 µM,–,–,0.991,> 1.02 µM
"SAT (head and neck, adherent)",0.94,> 10.2 µM,0.928,> 16 µM,–,–,0.967,> 1.02 µM
"SNU-475 (liver, adherent)",0.823,5.14 µM,0.979,> 16 µM,–,–,0.991,> 1.02 µM
"U-2-OS (osteosarcoma, adherent)",0.985,> 10.2 µM,0.858,15 µM,–,–,0.964,> 1.02 µM
"UACC-812 (breast, adherent)",0.871,9.08 µM,0.983,> 16 µM,–,–,0.991,> 1.02 µM
"VMRC-RCW (kidney, adherent)",0.917,> 10.2 µM,0.205,0.146 µM,–,–,0.979,> 1.02 µM

# By IC50 is meant the dose at which the fit gives 50% viability; a limit (>, <) means that the fit lies beyond the doses tested. For AUC the same curve is integrated over the 256-fold range of doses and scaled to a fraction; values near 1 show little effect. The top dose, if marked as inferred, comes from the curve model; the source does not state it.
